Each structure is given as a SMILES string. Out of some 310,000 compounds screened, about 14,000 (4.5%) showed an effect of 50% or more. The effect is printed as a negative number. Some of the results follow.
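Further: peak tail current of the secondary pulse compared with the same well before compound.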

The target of the experiment is human ether-à-go-go-related gene (hERG) potassium channel (human, UniProt Q12809). Kind of experiment: primary screen, population patch clamp on CHO cells stably expressing hERG.
human ether-à-go-go-related gene (hERG) potassium channel, sequence (Q12809 whole entry, looked up): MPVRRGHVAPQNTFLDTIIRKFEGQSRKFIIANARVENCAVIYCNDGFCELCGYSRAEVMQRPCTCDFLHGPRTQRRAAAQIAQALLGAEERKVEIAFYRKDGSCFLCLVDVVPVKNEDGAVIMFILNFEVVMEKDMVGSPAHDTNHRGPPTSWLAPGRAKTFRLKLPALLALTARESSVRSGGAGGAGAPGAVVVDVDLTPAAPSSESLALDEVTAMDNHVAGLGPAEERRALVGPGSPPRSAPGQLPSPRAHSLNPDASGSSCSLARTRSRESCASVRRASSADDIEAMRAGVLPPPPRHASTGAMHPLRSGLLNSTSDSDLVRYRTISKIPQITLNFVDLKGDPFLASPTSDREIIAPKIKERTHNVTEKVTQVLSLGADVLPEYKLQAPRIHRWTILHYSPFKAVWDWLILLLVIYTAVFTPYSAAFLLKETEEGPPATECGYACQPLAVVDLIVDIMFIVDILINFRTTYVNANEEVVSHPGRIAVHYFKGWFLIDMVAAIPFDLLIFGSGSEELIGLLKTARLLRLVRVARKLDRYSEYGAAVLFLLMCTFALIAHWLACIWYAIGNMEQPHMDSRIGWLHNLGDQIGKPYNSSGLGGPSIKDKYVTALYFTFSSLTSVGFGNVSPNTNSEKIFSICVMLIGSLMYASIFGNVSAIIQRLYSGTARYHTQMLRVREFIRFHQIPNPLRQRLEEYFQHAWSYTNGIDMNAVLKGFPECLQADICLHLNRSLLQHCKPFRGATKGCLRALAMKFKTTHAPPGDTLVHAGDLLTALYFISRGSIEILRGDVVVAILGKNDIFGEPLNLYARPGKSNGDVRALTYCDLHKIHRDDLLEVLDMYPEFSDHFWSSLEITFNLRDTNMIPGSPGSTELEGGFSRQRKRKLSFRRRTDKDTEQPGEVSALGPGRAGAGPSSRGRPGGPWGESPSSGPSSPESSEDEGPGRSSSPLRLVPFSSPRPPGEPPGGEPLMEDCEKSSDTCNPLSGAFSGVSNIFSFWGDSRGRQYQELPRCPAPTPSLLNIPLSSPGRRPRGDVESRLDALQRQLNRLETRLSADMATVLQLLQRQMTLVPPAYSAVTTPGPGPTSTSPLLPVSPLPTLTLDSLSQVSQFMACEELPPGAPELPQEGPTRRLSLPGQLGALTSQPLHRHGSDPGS
As to `O=C(O)C1CCN(C(=O)c2cc(F)cc3c2OCOC3)CC1`, the “hERG current change (%, negative = inhibition) at 10uM” value amounted to 17.1%.

With `O=C(N1CCN(CCO)CC1)N1c2ccccc2CCc2ccccc21`, the “hERG current change (%, negative = inhibition) at 10uM” value is -3.3%.

For the compound `Cc1cccc(OCC(=O)NCC(=O)N/N=C/c2cc(Br)cc(Br)c2O)c1`, the “hERG current change (%, negative = inhibition) at 10uM” value was 23%.

In the case of `CCN(CC)C(=O)C1CCCN(C/C=C/c2ccccc2)C1` (centres unmarked), the “hERG current change (%, negative = inhibition) at 10uM” value was -40.8%.

`O=C(O)CCc1ccc(-c2ccccc2)n1CC(=O)Nc1cccc(C(F)(F)F)c1`: the “hERG current change (%, negative = inhibition) at 10uM” value was determined as 24.2%.

As to `CN1C(=O)NC(=O)[C@]2(Cc3ccccc3N3CCN(c4ccccc4)CC32)C1=O` (some centres unmarked), the “hERG current change (%, negative = inhibition) at 10uM” value was determined as 0.699%.

As for `Cc1ccc(OCC(=O)Nn2cnc3ccccc32)cc1`, the “hERG current change (%, negative = inhibition) at 10uM” value came to 8.56%.

Regarding `COc1cc(CN(C)Cc2cccc3ccccc23)cc([N+](=O)[O-])c1O`, the “hERG current change (%, negative = inhibition) at 10uM” value came to 11.9%.

On to `O=C(COc1cccc(Br)c1)N/N=C1\CCSC1`, for which the “hERG current change (%, negative = inhibition) at 10uM” value is listed as 15.6%.

Take `Nn1c(-c2ccccc2)nc2ccccc2c1=O`: the “hERG current change (%, negative = inhibition) at 10uM” value is reported as 2.35%.

For `CC(C)(C)NS(=O)(=O)c1cccc(S(=O)(=O)c2cccc(S(=O)(=O)NC(C)(C)C)c2)c1`, the “hERG current change (%, negative = inhibition) at 10uM” value is -35.3%.

As to `COc1cccc(C(=O)CC(=O)C(=O)Nc2cc(Cl)c(OC)cc2OC)c1`, the “hERG current change (%, negative = inhibition) at 10uM” value is -1.34%.

For `Cn1nc(CC(=O)N2CCN(c3ccccc3)CC2)c2ccccc2c1=O`, the “hERG current change (%, negative = inhibition) at 10uM” value is reported as -16.1%.

Consider `CCn1c(SCC(=O)c2cc(OC)ccc2OC)nnc1-c1ccncc1`, for which the “hERG current change (%, negative = inhibition) at 10uM” value is given as -14.7%.

As for `O=C(Cc1csc(N2CCOCC2)n1)N/N=C/c1ccc(F)cc1`, the “hERG current change (%, negative = inhibition) at 10uM” value was -7.15%.

Consider `C[C@H](NC(N)=O)C(=O)OCC(=O)Nc1ccc(OC(F)F)cc1`, for which the “hERG current change (%, negative = inhibition) at 10uM” value is -11%.

For the compound `O=C(CCn1nnc2ccccc21)NNC(=O)C1CCCCC1`, the “hERG current change (%, negative = inhibition) at 10uM” value came out at 20.6%.

On to `CCn1c(SCc2nc(-c3ccc(OC)c(OC)c3)no2)nnc1-c1cccs1`, for which the “hERG current change (%, negative = inhibition) at 10uM” value is on record as -40.1%.

With `CN(C)c1ccc(-c2noc(-c3ccccc3O)n2)cc1`, the “hERG current change (%, negative = inhibition) at 10uM” value came out at 2.46%.

As to `CCCCn1c(N)c(N(CC)C(=O)c2cccc(S(=O)(=O)N3CCCc4ccccc43)c2)c(=O)[nH]c1=O`, the “hERG current change (%, negative = inhibition) at 10uM” value came out at 6.63%.

On to `COC(=O)c1sc(SC)c2c1CC(C)(C)C/C2=N/O`, for which the “hERG current change (%, negative = inhibition) at 10uM” value came out at 10.6%.

As for `COC(=O)Cn1c2c(c3cc(C)ccc31)CCCC2`, the “hERG current change (%, negative = inhibition) at 10uM” value is reported as -4.61%.

On to `CC(=O)C1=C(C)NC(SCC(N)=O)=C(C#N)C1c1sccc1C` (centres unmarked), for which the “hERG current change (%, negative = inhibition) at 10uM” value was found to be 0.306%.

Turning to `O=C(c1cccc(S(=O)(=O)N2CCOCC2)c1)N1CCN(S(=O)(=O)c2cccs2)CC1`, the “hERG current change (%, negative = inhibition) at 10uM” value was determined as 5.04%.

In the case of `O=C(OCC(=O)N1CCOCC1)c1cnc(Cl)c(Cl)c1`, the “hERG current change (%, negative = inhibition) at 10uM” value is 4.08%.

As for `Cc1onc(-c2ccccc2Cl)c1C(=O)OCc1cnc(Cl)s1`, the “hERG current change (%, negative = inhibition) at 10uM” value is given as -4.98%.

On to `NC(=S)N/N=C/c1cccc(O)c1O`, for which the “hERG current change (%, negative = inhibition) at 10uM” value was 29.3%.

As for `COc1ccc(CCNC(=O)c2cccc(S(=O)(=O)N3CCCCC3)c2)cc1`, the “hERG current change (%, negative = inhibition) at 10uM” value is listed as -14.9%.

With `CC(=O)OC(C(=O)NCS(=O)(=O)c1ccc(C)cc1)c1cccnc1` (centres unmarked), the “hERG current change (%, negative = inhibition) at 10uM” value is on record as 21.7%.

For `CC(NC(=O)CSc1ncnc2nc[nH]c12)c1ccccc1` (centres unmarked), the “hERG current change (%, negative = inhibition) at 10uM” value came out at 18.6%.

In the case of `Cc1ccc(N2CC(C(=O)Nc3c4c(nn3C(C)(C)C)CS(=O)(=O)C4)CC2=O)cc1C` (centres unmarked), the “hERG current change (%, negative = inhibition) at 10uM” value is -4.5%.

As to `CC(=O)Nc1ccc(NC(=O)c2ccc(Cl)nc2)cc1`, the “hERG current change (%, negative = inhibition) at 10uM” value was -4.1%.

In the case of `Cc1oc(C(C)(C)C)cc1C(=O)N1CCN(c2ccc(C(F)(F)F)cn2)CC1`, the “hERG current change (%, negative = inhibition) at 10uM” value is recorded as -5.33%.

Consider `COc1ccc(/C=C/C(=O)c2cc(Br)ccc2OC(=O)c2ccco2)cc1OC`, for which the “hERG current change (%, negative = inhibition) at 10uM” value is 13.5%.

On to `CN(C)C(=O)COC(=O)/C=C/c1ccccc1[N+](=O)[O-]`, for which the “hERG current change (%, negative = inhibition) at 10uM” value is listed as 13.9%.

In the case of `CCOc1cc(/C=C2/C(=O)N(c3ccccc3)N=C2C)ccc1OC(=O)c1cccs1`, the “hERG current change (%, negative = inhibition) at 10uM” value is 0.718%.

Consider `Cc1cc(CN(C)C(=O)CC2C(=O)NCCN2CC(c2ccccc2)c2ccccc2)on1` (centres unmarked), for which the “hERG current change (%, negative = inhibition) at 10uM” value was -24.1%.

As for `O=C(CSc1nncs1)N1CCN(C(=O)c2ccco2)CC1`, the “hERG current change (%, negative = inhibition) at 10uM” value worked out at 5.31%.

As for `Cc1ccccc1NC(=S)N1CCCN(Cc2ccc(F)cc2)C1`, the “hERG current change (%, negative = inhibition) at 10uM” value was -9.49%.

On to `COc1ccc(S(=O)(=O)N2CCC(C(=O)NCCC(=O)NCc3ccccc3OC)CC2)cc1`, for which the “hERG current change (%, negative = inhibition) at 10uM” value is listed as -7.42%.

Take `CC(C)Oc1cccc(C(=O)Nc2ccc(NC(=O)c3ccco3)cc2)c1`: the “hERG current change (%, negative = inhibition) at 10uM” value was 6.06%.

For `N#Cc1c(N)nc2c(c1-c1ccc(F)cc1)c(=O)nc1sccn12`, the “hERG current change (%, negative = inhibition) at 10uM” value was determined as 36.5%.

In the case of `O=C(Nn1c(O)c(C=C2N=c3ccccc3=N2)sc1=S)c1ccc(Cl)cc1`, the “hERG current change (%, negative = inhibition) at 10uM” value is given as 6.92%.

For the compound `O=C(c1cccc(C(=O)N2CCN(c3ccc(F)cc3)CC2)c1)N1CCN(c2ccc(F)cc2)CC1`, the “hERG current change (%, negative = inhibition) at 10uM” value is listed as -72.5%.

Turning to `OCCC1CN(Cc2ccon2)CCN1Cc1ccc(F)c(F)c1` (centres unmarked), the “hERG current change (%, negative = inhibition) at 10uM” value is listed as -13.9%.

As for `COc1ccccc1NC(=O)C(NC(=O)c1ccc(C)cc1)c1ccccc1` (centres unmarked), the “hERG current change (%, negative = inhibition) at 10uM” value is reported as 15.2%.

For `CCOc1cccc(N(C(=O)Cc2cccs2)C(C(=O)NC2CCCCC2)c2cccn2C)c1` (centres unmarked), the “hERG current change (%, negative = inhibition) at 10uM” value is listed as -5.98%.

For `CCOc1ccc(CN(C(=O)c2cc3ccccc3oc2=O)C2CCS(=O)(=O)C2)cc1` (centres unmarked), the “hERG current change (%, negative = inhibition) at 10uM” value was -40.4%.

Turning to `CC(C)(C)P(=O)(N1CCOCC1)N1CCOCC1`, the “hERG current change (%, negative = inhibition) at 10uM” value is on record as 24.1%.

`CN(C)c1nc(-c2cccnc2)nc(-c2ccccc2)c1C#N`: the “hERG current change (%, negative = inhibition) at 10uM” value is given as 10.3%.

Consider `O=C(O)c1cccc(S(=O)(=O)Nc2cccc3ccccc23)c1`, for which the “hERG current change (%, negative = inhibition) at 10uM” value came to 16.5%.

As for `COc1cc2nc(CSc3nc(-c4ccc(F)cc4)cs3)[nH]c(=O)c2cc1OC`, the “hERG current change (%, negative = inhibition) at 10uM” value amounted to 3.36%.

Regarding `COc1cc(/C=N/NS(=O)(=O)c2ccc(Br)cc2)ccc1O`, the “hERG current change (%, negative = inhibition) at 10uM” value is 1.58%.

Turning to `C=CCNS(=O)(=O)c1ccc(OC)c(C)c1`, the “hERG current change (%, negative = inhibition) at 10uM” value is given as 3.59%.

As for `CCCCN1C(=O)C(O)=C(C(C)=O)C1c1ccccc1[N+](=O)[O-]` (centres unmarked), the “hERG current change (%, negative = inhibition) at 10uM” value is listed as 8.06%.

With `O=C(NN1C(=O)c2ccccc2NC12CCCCC2)c1ccccc1`, the “hERG current change (%, negative = inhibition) at 10uM” value was -7.42%.

Source of the values: paper PMC4336329 (PLoS ONE, 2015).
